Experimental data reported in patent US8992932B2 (Seattle Genetics, Inc., dated 2015).

T1: C4.4a on A549 cells transfected with the sequence for the complete C4.4a receptor (Homo sapiens)
T1 chain: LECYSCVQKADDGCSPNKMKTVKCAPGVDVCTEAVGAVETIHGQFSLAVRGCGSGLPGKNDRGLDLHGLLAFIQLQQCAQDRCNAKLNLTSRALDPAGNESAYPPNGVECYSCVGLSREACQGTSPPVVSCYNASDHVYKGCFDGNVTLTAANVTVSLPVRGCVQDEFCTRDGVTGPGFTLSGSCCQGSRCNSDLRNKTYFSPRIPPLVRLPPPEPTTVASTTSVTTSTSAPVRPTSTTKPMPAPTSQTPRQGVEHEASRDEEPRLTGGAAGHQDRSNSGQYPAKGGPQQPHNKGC


Target: T1, C4.4a on A549 cells transfected with …
Test: cell-based or functional assay

| Binder | IC50 [nM] A549: C4.4a (cell viability) [nM] |
| --- | --- |
| ADC of Example 122 (antibody, toxophore-linker on Cys (via S); toxophore-linker on Cys (via S)) heavy: EVQLLESGGGLVQPGGSLRLSCAASGFTFSNAWMSWVRQAPGKGLEWVSYISSSGSTIYYADSVKGRFTISRDNSKNTLYLQMNSLRAEDTAVYYCAREGLWAFDYWGQGTLVTVSS[in this place human IgG1 constant region] light: ESVLTQPPSVSGAPGQRVTISCTGSSSNIGAGYVVHWYQQLPGTAPKLLIYDNNKRPSGVPDRFSGSKSGTSASLAISGLRSEDEADYYCAAWDDRLNGPVFGGGTKLTVLGQPKAAPSVTLFPPSSEELQANKATLVCLISDFYPGAVTVAWKADSSPVKAGVETTTPSKQSNNKYAASSYLSLTPEQWKSHRSYSCQVTHEGSTVEKTVAPTECS | 0.04 |
| ADC of Example 1 (antibody, toxophore-linker on Cys (via S); toxophore-linker on Cys (via S)) heavy: QVELLESGGGLVQPGGSLRLSCAASGFTFSNAWMSWVRQAPGKGLEWVSYISSSGSTIYYADSVKGRFTISRDNSKNTLYLQMNSLRAEDTAVYYCAREGLWAFDYWGQGTLVTVSS[in this place human IgG1 constant region] light: DIVLTQPPSASGTPGQRVTISCTGSSSNIGAGYVVHWYQQLPGTAPKLLIYDNNKRPSGVPDRFSGSKSGTSASLAISGLRSEDEADYYCAAWDDRLNGPVFGGGTKLTVLGQPKAAPSVTLFPPSSEELQANKATLVCLISDFYPGAVTVAWKGDSSPVKAGVETTTPSKQSNNKYAASSYLSLTPEQWKSHRSYSCQVTHEGSTVEKTVAPTECS | 0.081 |
| ADC of Example 124 (antibody, toxophore-linker on Lys (via NH); toxophore-linker on Lys (via NH)) heavy: EVQLLESGGGLVQPGGSLRLSCAASGFTFSNAWMSWVRQAPGKGLEWVSYISSSGSTIYYADSVKGRFTISRDNSKNTLYLQMNSLRAEDTAVYYCAREGLWAFDYWGQGTLVTVSS[in this place human IgG1 constant region] light: ESVLTQPPSVSGAPGQRVTISCTGSSSNIGAGYVVHWYQQLPGTAPKLLIYDNNKRPSGVPDRFSGSKSGTSASLAISGLRSEDEADYYCAAWDDRLNGPVFGGGTKLTVLGQPKAAPSVTLFPPSSEELQANKATLVCLISDFYPGAVTVAWKADSSPVKAGVETTTPSKQSNNKYAASSYLSLTPEQWKSHRSYSCQVTHEGSTVEKTVAPTECS | 0.04 |
| ADC of Example 123 (antibody, toxophore-linker on Lys (via NH); toxophore-linker on Lys (via NH)) heavy: EVQLLESGGGLVQPGGSLRLSCAASGFTFSNAWMSWVRQAPGKGLEWVSYISSSGSTIYYADSVKGRFTISRDNSKNTLYLQMNSLRAEDTAVYYCAREGLWAFDYWGQGTLVTVSS[in this place human IgG1 constant region] light: ESVLTQPPSVSGAPGQRVTISCTGSSSNIGAGYVVHWYQQLPGTAPKLLIYDNNKRPSGVPDRFSGSKSGTSASLAISGLRSEDEADYYCAAWDDRLNGPVFGGGTKLTVLGQPKAAPSVTLFPPSSEELQANKATLVCLISDFYPGAVTVAWKADSSPVKAGVETTTPSKQSNNKYAASSYLSLTPEQWKSHRSYSCQVTHEGSTVEKTVAPTECS | 0.02 |
| ADC of Example 15 (antibody, toxophore-linker on Cys (via S); toxophore-linker on Cys (via S)) heavy: QVELLESGGGLVQPGGSLRLSCAASGFTFSNAWMSWVRQAPGKGLEWVSYISSSGSTIYYADSVKGRFTISRDNSKNTLYLQMNSLRAEDTAVYYCAREGLWAFDYWGQGTLVTVSS[in this place human IgG1 constant region] light: DIVLTQPPSASGTPGQRVTISCTGSSSNIGAGYVVHWYQQLPGTAPKLLIYDNNKRPSGVPDRFSGSKSGTSASLAISGLRSEDEADYYCAAWDDRLNGPVFGGGTKLTVLGQPKAAPSVTLFPPSSEELQANKATLVCLISDFYPGAVTVAWKGDSSPVKAGVETTTPSKQSNNKYAASSYLSLTPEQWKSHRSYSCQVTHEGSTVEKTVAPTECS | 0.03 |
| ADC of Example 125 (antibody, toxophore-linker on Lys (via NH); toxophore-linker on Lys (via NH)) heavy: EVQLLESGGGLVQPGGSLRLSCAASGFTFSNAWMSWVRQAPGKGLEWVSYISSSGSTIYYADSVKGRFTISRDNSKNTLYLQMNSLRAEDTAVYYCAREGLWAFDYWGQGTLVTVSS[in this place human IgG1 constant region] light: ESVLTQPPSVSGAPGQRVTISCTGSSSNIGAGYVVHWYQQLPGTAPKLLIYDNNKRPSGVPDRFSGSKSGTSASLAISGLRSEDEADYYCAAWDDRLNGPVFGGGTKLTVLGQPKAAPSVTLFPPSSEELQANKATLVCLISDFYPGAVTVAWKADSSPVKAGVETTTPSKQSNNKYAASSYLSLTPEQWKSHRSYSCQVTHEGSTVEKTVAPTECS | 0.04 |
